From the supplement of paper PMC3334620
Over roughly 33,000 sequences, “E-score (-0.5 to 0.5)” has its median near -0.035; the highest 2% begin near 0.35. The list shows a part of the results.

These sequences were tested against T1, Pdr3 (UniProt P33200) (assay: PBM E-score (8-mer binding enrichment) (E-score (-0.5 to 0.5)); higher = stronger / more preferred TF binding; most listed sequences are background and not binding sites). Details: protein concentration: 200 nM; construct: GST-full length.
T1 sequence: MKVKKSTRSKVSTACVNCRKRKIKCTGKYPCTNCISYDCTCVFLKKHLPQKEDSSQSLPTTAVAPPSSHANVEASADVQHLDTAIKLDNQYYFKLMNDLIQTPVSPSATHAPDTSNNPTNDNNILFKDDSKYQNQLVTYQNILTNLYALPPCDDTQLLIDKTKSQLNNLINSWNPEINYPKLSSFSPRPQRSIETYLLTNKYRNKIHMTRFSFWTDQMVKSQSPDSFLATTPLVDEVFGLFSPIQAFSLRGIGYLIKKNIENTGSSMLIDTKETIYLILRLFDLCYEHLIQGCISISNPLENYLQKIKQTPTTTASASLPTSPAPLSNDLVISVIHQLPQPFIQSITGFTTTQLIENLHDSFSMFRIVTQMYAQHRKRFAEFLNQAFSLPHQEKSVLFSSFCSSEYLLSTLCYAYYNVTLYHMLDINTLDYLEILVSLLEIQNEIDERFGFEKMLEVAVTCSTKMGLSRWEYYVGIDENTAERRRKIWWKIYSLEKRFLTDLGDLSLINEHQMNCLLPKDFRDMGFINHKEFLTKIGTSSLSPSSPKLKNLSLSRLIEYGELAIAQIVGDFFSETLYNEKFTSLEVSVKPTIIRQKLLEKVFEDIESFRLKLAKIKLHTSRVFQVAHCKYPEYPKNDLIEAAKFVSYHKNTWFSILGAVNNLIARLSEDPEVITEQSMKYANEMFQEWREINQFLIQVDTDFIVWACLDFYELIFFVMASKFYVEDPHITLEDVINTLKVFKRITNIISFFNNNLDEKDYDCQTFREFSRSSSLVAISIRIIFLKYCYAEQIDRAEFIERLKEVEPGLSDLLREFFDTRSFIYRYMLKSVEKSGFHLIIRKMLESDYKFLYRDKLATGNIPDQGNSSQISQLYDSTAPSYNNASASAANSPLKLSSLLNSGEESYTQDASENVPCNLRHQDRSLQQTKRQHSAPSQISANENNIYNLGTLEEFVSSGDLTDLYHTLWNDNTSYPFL
Outline: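 Yeast transcription factors carrying a GST tag, as full-length proteins or DNA-binding domains, were produced by PURExpress in vitro transcription/translation. About 100-200 nM protein was applied to universal all-10-mer Agilent arrays, double-stranded by primer extension on fresh or once-stripped slides. Bound protein was detected with fluorescent anti-GST, and scans were normalised with masliner. The Universal PBM Analysis Suite gave each ungapped eight-base word, pooled with its reverse complement, an E-score, a modified Wilcoxon-Mann-Whitney statistic.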

Row | Sequence | PBM E-score
1 | GACGTGCA | -0.167
2 | TAGTAGGA | -0.0406
3 | ACTAACAA | -0.158
4 | TCCAACAA | -0.159
5 | GACGTATC | -0.0675
6 | CAATCTCG | 0.0488
7 | AAGGACGA | -0.0955
8 | ATGCTCCA | 0.066
9 | GAATTCGC | 0.181
10 | CGACGCCG | 0.215
11 | AAAAGAGG | -0.284
12 | GCTTTGAC | 0.0463
13 | ACCGGGCC | 0.25
14 | ACCGACAC | 0.0843
15 | AGGTATAC | -0.113
16 | ACACCGTA | -0.107
17 | ACTTCGCA | -0.192
18 | CCTCATCC | -0.0556
19 | CAGGTAGC | -0.0668
20 | TAATTGTA | -0.0754
21 | AGAACCTC | 0.00316
22 | CTGGGGAA | -0.193
23 | ATCATCAC | -0.103
24 | CCGTAGCG | 0.0439
25 | TCTCAGAA | -0.219

Row | Sequence | PBM E-score
26 | CAATGCGC | 0.175
27 | TGGGAAAA | -0.104
28 | AAGCATTA | -0.217
29 | AATATTGA | 0.0615
30 | TCAAGTGA | -0.203
31 | CTACGGGC | -0.24
32 | CGATGCTA | -0.0121
33 | CATGACAC | 0.00348
34 | CCAACATA | 0.181
35 | CAAGTCTG | -0.271
36 | CCCTAAGC | -0.251
37 | CGTGCGCA | -0.111
38 | CAGGGTGA | -0.201
39 | AGTCGCTC | -0.212
40 | CAGCATTC | -0.0081
41 | ATCTGAAC | 0.0373
42 | ACTTCTGG | -0.155
43 | GTTACATA | -0.167
44 | ACTTTGTG | 0.0119
45 | ACCAAATA | 0.0784
46 | CGCCACGA | -0.209
47 | GCCTGCAC | -0.154
48 | ACGCGGGA | 0.317
49 | CGTCTACA | -0.13
50 | AACGGATG | 0.283

Row | Sequence | PBM E-score
51 | GTTCGGTA | 0.0837
52 | TGGCCGAA | 0.175
53 | CTCTCATA | -0.0485
54 | AGGCAGCA | -0.0599
55 | AAGGTGAT | -0.148
56 | CGTGCCAG | -0.138
57 | AATATAAT | -0.0536
58 | CCGACGAC | 0.221
59 | ACCACAAA | -0.03
60 | CCTTAGAC | -0.246
61 | CTCCATTA | 0.0305
62 | CCTACGCA | -0.308
63 | CGTCTTCC | 0.17
64 | GCCATCAA | -0.163
65 | TAACTTGA | -0.232
66 | AGCCTACT | -0.186
67 | ATCGTCCC | 0.124
68 | AACCTCGC | 0.0544
69 | CCCTCCAG | -0.0628
70 | GACCGAGA | 0.225
71 | AAGCGTCG | -0.135
72 | GTTGCCGA | 0.234
73 | GCTATAGC | -0.328
74 | AAGCTAGG | -0.0943
75 | CCCCAGTC | -0.0514

Row | Sequence | PBM E-score
76 | CAGCAATA | -0.0745
77 | AGGGCTTC | -0.147
78 | ATCAAGAT | -0.0736
79 | GGCCGATA | 0.0764
80 | ACCTATCG | 0.0761
81 | TTCACGAA | -0.162
82 | ATGGCTTA | -0.111
83 | TACTTTAA | -0.17
84 | ACAAGGGG | -0.0834
85 | CAGGCCCC | -0.238
86 | CCAATATA | -0.0952
87 | CATTCCGG | 0.451
88 | GCCATTAC | 0.137
89 | GATTTAAA | -0.159
90 | CGTCTTGC | -0.0141
91 | GCTTGTTA | 0.0045
92 | GCCCTTTA | -0.304
93 | AATAAGCT | -0.0309
94 | ACCACCAT | 0.116
95 | CGGCCCAA | 0.177
96 | CGGAACCA | 0.483
97 | ATTGATGA | 0.124
98 | GACTAGCC | -0.311
99 | ACCGCGAG | -0.00369
100 | TTAGTAAA | -0.0384

Row | Sequence | PBM E-score
101 | AGGGGATG | -0.14
102 | AAGTAGGC | -0.0291
103 | AGATGCCG | 0.168
104 | ACGATGGA | 0.0819
105 | AGCATAGG | -0.229
106 | CGGATATC | 0.391
107 | ATAGTCGA | 0.0166
108 | ACACTAGA | -0.0149
109 | CCCATGCA | -0.0997
110 | TCTATAAA | -0.167
111 | CATCTTAC | -0.215
112 | ACAACTAT | 0.105
113 | TCCTCAGA | -0.124
114 | CGCGCAAG | 0.109
115 | CAACAACC | -0.0219
116 | CTAAGTTA | -0.304
117 | AAGATCAT | -0.126
118 | CCTCTGAC | 0.021
119 | CGAGCCAC | -0.101
120 | CCGAATAA | 0.2
121 | CCACAAAG | 0.0085
122 | ACCCACAT | 0.00786
123 | GTACGCTA | -0.0803
124 | ACAGAAGA | 0.0897
125 | ACGGTGTG | -0.103

Row | Sequence | PBM E-score
126 | ACATTTTG | -0.198
127 | CTGTCTTA | -0.138
128 | AGACACGG | 0.18
129 | ATGCCCCA | -0.0204
130 | CGACTAGC | -0.0653
131 | CAAGGAGG | -0.0449
132 | AGAATCCG | 0.215
133 | AATCTTCT | 0.022
134 | TCGGGAGA | 0.12
135 | CTGTGACA | -0.192
136 | ATAGACGC | 0.126
137 | ATCAGGAA | 0.0955
138 | CCGCTGCA | 0.0776
139 | CTGCGAAG | -0.19
140 | AACAGAGC | -0.0483
141 | AACATCTG | -0.17
142 | AGCCGAGA | 0.139
143 | GGCACCCC | -0.0993
144 | CACTTTAG | -0.149
145 | ATTGAGAC | 0.0312
146 | GGATGTAA | 0.226
147 | GGATTCTA | 0.0635
148 | CTCGTAGC | -0.167
149 | ATCTGTTC | 0.084
150 | GCAGAGGC | -0.108

Row | Sequence | PBM E-score
151 | AAATAACG | -0.0302
152 | ATCGCCTG | -0.0606
153 | CGGGCGAG | 0.155
154 | AGACGCAA | 0.074
155 | GGGCAGAA | 0.0965
156 | GAGCGTGC | 0.0566
157 | AGCAGATC | -0.0743
158 | ATATTTGC | 0.118
159 | ATCGCAGG | -0.182
160 | TGTTGGAA | -0.0318
161 | CATGCCCC | 0.0743
162 | AACACGCA | -0.0584
163 | CGTCTCCC | 0.156
164 | AGACTTGA | -0.273
165 | GCATGCGC | 0.0518
166 | AGTACAAT | -0.0444
167 | CCGAAATC | 0.278
168 | CGTCTTAC | -0.158
169 | CCCTTACG | -0.137
170 | TGTGCAAA | -0.281
171 | CATATCTA | 0.141
172 | AGCGGGTA | 0.0103
